Test results from paper PMC9911399, “Two distinct binding modes provide the RNA-binding protein RbFox with extraordinary sequence specificity”.
Numbering of substitutions follows the chain as printed; changes in the protein carry UniProt numbers. The list shows a part of the results.

T1: RBFOX1 RRM (Homo sapiens, UniProt Q9NWB1 109-208)
T1 sequence: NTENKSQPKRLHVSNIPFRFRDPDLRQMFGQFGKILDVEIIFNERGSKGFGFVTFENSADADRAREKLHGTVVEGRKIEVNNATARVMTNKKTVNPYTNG

B1: CACAGCU (DNA:RNA)
RNA: GGGAGACCGGAAUUCAGAUUGUCCCACAGCUUUAAAUCCCGUCGUAGCCACCA
DNA 1: CAATCTGAATTCCGGTCTCCC
DNA 2: TGGTGGCTACGACGGGATT
B2: AUUGCUU (DNA:RNA)
RNA: B1 RNA with C25A, A26U, C27U, A28G, G29C, C30U
DNA 1: CAATCTGAATTCCGGTCTCCC
DNA 2: TGGTGGCTACGACGGGATT
B3: UCGUGCA (DNA:RNA)
RNA: B1 RNA with C25U, A26C, C27G, A28U, U31A
DNA 1: CAATCTGAATTCCGGTCTCCC
DNA 2: TGGTGGCTACGACGGGATT
B4: AUCCUAG (DNA:RNA)
RNA: B1 RNA with C25A, A26U, A28C, G29U, C30A, U31G
DNA 1: CAATCTGAATTCCGGTCTCCC
DNA 2: TGGTGGCTACGACGGGATT
B5: GAGCUUC (DNA:RNA)
RNA: B1 RNA with C25G, C27G, A28C, G29U, C30U, U31C
DNA 1: CAATCTGAATTCCGGTCTCCC
DNA 2: TGGTGGCTACGACGGGATT
B6: UGCCACG (DNA:RNA)
RNA: B1 RNA with C25U, A26G, A28C, G29A, U31G
DNA 1: CAATCTGAATTCCGGTCTCCC
DNA 2: TGGTGGCTACGACGGGATT
B7: CCGUGAC (DNA:RNA)
RNA: B1 RNA with A26C, C27G, A28U, C30A, U31C
DNA 1: CAATCTGAATTCCGGTCTCCC
DNA 2: TGGTGGCTACGACGGGATT
B8: GGUAGGC (DNA:RNA)
RNA: B1 RNA with C25G, A26G, C27U, C30G, U31C
DNA 1: CAATCTGAATTCCGGTCTCCC
DNA 2: TGGTGGCTACGACGGGATT
B9: GCGGCAG (DNA:RNA)
RNA: GGGAGACCGGAAUUCAGAUUGUCCGCGGCAGUUAAAUCCCGUCGUAGCCACCA
DNA 1: CAATCTGAATTCCGGTCTCCC
DNA 2: TGGTGGCTACGACGGGATT
B10: AUCCUAA (DNA:RNA)
RNA: B1 RNA with C25A, A26U, A28C, G29U, C30A, U31A
DNA 1: CAATCTGAATTCCGGTCTCCC
DNA 2: TGGTGGCTACGACGGGATT
B11: ACGUGGG (DNA:RNA)
RNA: B9 RNA with G25A, G28U, C29G, A30G
DNA 1: CAATCTGAATTCCGGTCTCCC
DNA 2: TGGTGGCTACGACGGGATT
B12: AGACGGA (DNA:RNA)
RNA: B1 RNA with C25A, A26G, C27A, A28C, C30G, U31A
DNA 1: CAATCTGAATTCCGGTCTCCC
DNA 2: TGGTGGCTACGACGGGATT
B13: CAGGGGG (DNA:RNA)
RNA: B1 RNA with C27G, A28G, C30G, U31G
DNA 1: CAATCTGAATTCCGGTCTCCC
DNA 2: TGGTGGCTACGACGGGATT
B14: CCACUGA (DNA:RNA)
RNA: B1 RNA with A26C, C27A, A28C, G29U, C30G, U31A
DNA 1: CAATCTGAATTCCGGTCTCCC
DNA 2: TGGTGGCTACGACGGGATT
B15: CGGGUAA (DNA:RNA)
RNA: B9 RNA with G25C, C26G, C29U, G31A
DNA 1: CAATCTGAATTCCGGTCTCCC
DNA 2: TGGTGGCTACGACGGGATT
B16: CGUGUUC (DNA:RNA)
RNA: B1 RNA with A26G, C27U, A28G, G29U, C30U, U31C
DNA 1: CAATCTGAATTCCGGTCTCCC
DNA 2: TGGTGGCTACGACGGGATT
B17: UUCUCAA (DNA:RNA)
RNA: B9 RNA with G25U, C26U, G27C, G28U, G31A
DNA 1: CAATCTGAATTCCGGTCTCCC
DNA 2: TGGTGGCTACGACGGGATT
B18: GAACCGG (DNA:RNA)
RNA: B9 RNA with C26A, G27A, G28C, A30G
DNA 1: CAATCTGAATTCCGGTCTCCC
DNA 2: TGGTGGCTACGACGGGATT
B19: AGAAUCG (DNA:RNA)
RNA: B1 RNA with C25A, A26G, C27A, G29U, U31G
DNA 1: CAATCTGAATTCCGGTCTCCC
DNA 2: TGGTGGCTACGACGGGATT
B20: UUCCGCA (DNA:RNA)
RNA: B1 RNA with C25U, A26U, A28C, U31A
DNA 1: CAATCTGAATTCCGGTCTCCC
DNA 2: TGGTGGCTACGACGGGATT

Biological target: T1, RBFOX1 RRM
Assay: EMSA; HiTS-Eq, 1 nM pool, 10 min; buffer printed only for the single-RNA assays: 10 mM Tris pH 7.5, 150 mM NaCl, 3.4 mM EDTA, 0.001% NP-40, 30 C
Settings: tags: His6 N-terminal (pET28a); label: 5' 32P
How it was run: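 Relative association constants, normalised to the cognate motif, were derived by comparing read counts of each RNA species with those of the control reaction. The RNA sequenced was the free fraction, separated by 8% native PAGE after a 10 min equilibration in 50 µL of 1 nM 5′-radiolabelled RNA (7 randomized nucleotides) with increasing concentrations of purified wild-type or mutant RbFox RRM.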

**Q.** How did the binding signal turn out when B1 was run?
**A.** Its binding signal is 0.00163 KA relative to UGCAUGU.

**Q.** With B2 as the binder, how does the binding signal read?
**A.** Its binding signal is 0.0107 KA relative to UGCAUGU.

**Q.** Which binding signal does the source give for B3 here?
**A.** Its binding signal is 0.0239 KA relative to UGCAUGU.

**Q.** For B4, which binding signal is on record?
**A.** Its binding signal is 0.00318 KA relative to UGCAUGU.

**Q.** For B5, which binding signal is on record?
**A.** Its binding signal is 0.0194 KA relative to UGCAUGU.

**Q.** Which binding signal does the source give for B6 here?
**A.** Its binding signal is 0.0198 KA relative to UGCAUGU.

**Q.** For B7, which binding signal is on record?
**A.** Its binding signal is 0.00491 KA relative to UGCAUGU.

**Q.** With B8 as the binder, how does the binding signal read?
**A.** The binding signal was 0.00776 KA relative to UGCAUGU.

**Q.** With B9 as the binder, how does the binding signal read?
**A.** The binding signal was 0.0169 KA relative to UGCAUGU.

**Q.** Which binding signal does the source give for B10 here?
**A.** Its binding signal is 0.00156 KA relative to UGCAUGU.

**Q.** For B11, which binding signal is on record?
**A.** The binding signal was 0.0119 KA relative to UGCAUGU.

**Q.** With B12 as the binder, how does the binding signal read?
**A.** Its binding signal is 0.00506 KA relative to UGCAUGU.

**Q.** How did the binding signal turn out when B13 was run?
**A.** Its binding signal is 0.01 KA relative to UGCAUGU.

**Q.** How did the binding signal turn out when B14 was run?
**A.** Its binding signal is 0.0104 KA relative to UGCAUGU.

**Q.** B15 was tested. Which binding signal did it give?
**A.** The binding signal was 0.0192 KA relative to UGCAUGU.

**Q.** How did the binding signal turn out when B16 was run?
**A.** Its binding signal is 0.0132 KA relative to UGCAUGU.

**Q.** With B17 as the binder, how does the binding signal read?
**A.** The binding signal was 0.00416 KA relative to UGCAUGU.

**Q.** How did the binding signal turn out when B18 was run?
**A.** Its binding signal is 0.0117 KA relative to UGCAUGU.

**Q.** B19 was tested. Which binding signal did it give?
**A.** The binding signal was 0.00981 KA relative to UGCAUGU.

**Q.** How did the binding signal turn out when B20 was run?
**A.** Its binding signal is 0.00914 KA relative to UGCAUGU.
